Measured values from the supplement of paper PMC4967469.
By IC50 is meant the dose at which the fit gives 50% viability; fits outside the tested doses are given as limits. AUC is the area under the same curve over the 256-fold range up to the top dose, as a fraction: 1 means no effect, lower means more sensitive. Any top dose called inferred is not printed in the source and was worked back from the curve model. For part of these data: Drugs with an entry number were screened twice under separate entries, and the two screens often disagree.

Assays:
Assay in all cases: Viability of human cancer cell lines after 72 h of drug (GDSC screen)
[1] = compound: Cc1ccc(-n2nc(C(C)(C)C)cc2NC(=O)Nc2ccc(OCCN3CCOCC3)c3ccccc23)cc1 [BIRB 0796]; conditions: top dose 10 µM; top dose inferred
Method: (§1)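 Human cancer cell lines in 384-well plates, medium with 10% serum, drug for 72 h over a 256-fold dose range (nine 2-fold or five 4-fold steps up to the top dose). Adherent lines were fixed and stained with the nucleic acid dye Syto60, suspension lines read with resazurin; signal relative to control wells, capped at 0 and 100%. One two-parameter sigmoid per drug and line, fitted in a mixed model over all curves with the slope shared within a line.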

[2] = compound: COc1cc(N2CCN(C)CC2)ccc1Nc1ncc2c(n1)N(C)c1ccccc1C(=O)N2C [XMD8-85]; conditions: top dose 8 µM; top dose inferred
Method: as §1

[3] = compound: Cc1cc(N2CCOCC2)cc2[nH]c(-c3c(NC[C@@H](O)c4cccc(Cl)c4)cc[nH]c3=O)nc12 [BMS-536924]
Method: as §1

[4] = compound: Cc1cccc(-c2[nH]c(C(C)(C)C)nc2-c2ccc3nccnc3c2)n1 [SB-525334]; conditions: top dose 20 µM; top dose inferred
Method: as §1

[5] = compound: COc1cc(-c2nn([C@H]3CC[C@H](N4CCN(C(C)=O)CC4)CC3)c3ncnc(N)c23)ccc1NC(=O)c1cc2ccccc2n1C [A-770041]; conditions: top dose 5.12 µM; top dose inferred
Method: as §1

[6] = compound: O=C(c1cc(Cc2n[nH]c(=O)c3ccccc23)ccc1F)N1CCN(C(=O)C2CC2)CC1 [Olaparib]
Method: as §1

[7] = compound: O=C1NC(=O)c2c1c(-c1ccccc1Cl)cc1[nH]c3ccc(O)cc3c21 [Wee1 inhibitor 681640]; conditions: top dose 2 µM; top dose inferred
Method: as §1

[8] = compound: CC(C)=CC[C@@H](O)C1=CC(=O)c2c(O)ccc(O)c2C1=O [Shikonin]; conditions: top dose 16 µM; top dose inferred
Method: as §1

[9] = compound: NC(=O)c1ccc(N(C(N)=O)c2c(F)cccc2F)nc1-c1ccc(F)cc1F [VX-702]; conditions: top dose 2 µM; top dose inferred
Method: as §1

[10] = compound: CCNc1cc(NC2CCC(O)CC2)nc(Nc2ccc3c(ccn3Cc3ccccc3)c2)n1 [CGP-082996 (CINK4)]; conditions: top dose 5.12 µM; top dose inferred
Method: as §1

[11] = top dose 4 µM, screen: GDSC drug entry 1091, top dose inferred
[12] = top dose 5.12 µM, screen: GDSC drug entry 62
[13] = top dose 5 µM, screen: GDSC drug entry 1017, top dose inferred
[14] = top dose 10 µM, screen: GDSC drug entry 1495

Cell Line | AUC [1] | IC50 [1] | AUC [2] | IC50 [2] | AUC [3, 11] | IC50 [3, 11] | AUC [3, 12] | IC50 [3, 12] | AUC [4] | IC50 [4] | AUC [5] | IC50 [5] | AUC [6, 13] | IC50 [6, 13] | AUC [6, 14] | IC50 [6, 14] | AUC [7] | IC50 [7] | AUC [8] | IC50 [8] | AUC [9] | IC50 [9] | AUC [10] | IC50 [10]
CHP-126 (neuroblastoma, suspension) | 0.987 | > 10 µM | 0.927 | > 8 µM | 0.986 | > 4 µM | 0.871 | 5.04 µM | 0.824 | 12.3 µM | 0.905 | > 5.12 µM | 0.987 | > 5 µM | 0.948 | > 10 µM | 0.955 | > 2 µM | 0.473 | 0.842 µM | 0.97 | > 2 µM | 0.986 | > 5.12 µM
CMK (acute myeloid leukaemia, suspension) | 0.99 | > 10 µM | 0.836 | 4.19 µM | 0.989 | > 4 µM | 0.663 | 0.838 µM | 0.951 | > 20 µM | 0.99 | > 5.12 µM | 0.977 | > 5 µM | 0.972 | > 10 µM | 0.962 | > 2 µM | 0.371 | 0.469 µM | 0.99 | > 2 µM | 0.884 | 4.08 µM
COLO-320-HSR (large intestine, suspension) | 0.992 | > 10 µM | 0.951 | > 8 µM | 0.852 | 2.49 µM | 0.548 | 0.425 µM | 0.95 | > 20 µM | 0.945 | > 5.12 µM | 0.99 | > 5 µM | 0.985 | > 10 µM | 0.989 | > 2 µM | 0.553 | 1.37 µM | 0.99 | > 2 µM | 0.988 | > 5.12 µM
COLO-824 (breast, adherent) | 0.988 | > 10 µM | 0.982 | > 8 µM | 0.889 | > 4 µM | 0.987 | > 5.12 µM | 0.865 | 18.3 µM | 0.939 | > 5.12 µM | 0.988 | > 5 µM | 0.982 | > 10 µM | 0.984 | > 2 µM | 0.412 | 0.572 µM | 0.986 | > 2 µM | 0.955 | > 5.12 µM
COR-L88 (small cell lung carcinoma, adherent) | 0.986 | > 10 µM | 0.984 | > 8 µM | 0.983 | > 4 µM | 0.968 | > 5.12 µM | 0.94 | > 20 µM | 0.937 | > 5.12 µM | 0.983 | > 5 µM | 0.969 | > 10 µM | 0.979 | > 2 µM | 0.749 | 6.07 µM | 0.971 | > 2 µM | 0.96 | > 5.12 µM
CP66-MEL (melanoma, adherent) | 0.967 | > 10 µM | 0.93 | > 8 µM | 0.898 | > 4 µM | 0.933 | > 5.12 µM | 0.585 | 2.21 µM | 0.972 | > 5.12 µM | 0.983 | > 5 µM | 0.96 | > 10 µM | 0.986 | > 2 µM | 0.551 | 1.41 µM | 0.986 | > 2 µM | 0.948 | > 5.12 µM
CPC-N (small cell lung carcinoma, suspension) | 0.984 | > 10 µM | 0.913 | > 8 µM | 0.816 | 2.48 µM | 0.771 | 2.15 µM | 0.935 | > 20 µM | 0.954 | > 5.12 µM | 0.985 | > 5 µM | 0.965 | > 10 µM | 0.888 | > 2 µM | 0.839 | 12.5 µM | 0.946 | > 2 µM | 0.979 | > 5.12 µM
CTB-1 (B-cell lymphoma, suspension) | 0.979 | > 10 µM | 0.848 | > 8 µM | 0.938 | > 4 µM | 0.898 | > 5.12 µM | 0.741 | 8.07 µM | 0.842 | > 5.12 µM | 0.962 | > 5 µM | 0.957 | > 10 µM | 0.871 | > 2 µM | 0.481 | 0.87 µM | 0.95 | > 2 µM | 0.947 | > 5.12 µM
CTV-1 (acute myeloid leukaemia, suspension) | 0.992 | > 10 µM | 0.959 | > 8 µM | 0.866 | 2.45 µM | 0.831 | 2.41 µM | 0.844 | 10.4 µM | 0.019 | < 0.02 µM | 0.958 | > 5 µM | 0.964 | > 10 µM | 0.946 | > 2 µM | 0.763 | 4.73 µM | 0.965 | > 2 µM | 0.952 | > 5.12 µM
D-283MED (medulloblastoma, adherent) | 0.986 | > 10 µM | 0.847 | 5.13 µM | 0.979 | > 4 µM | 0.931 | > 5.12 µM | 0.991 | > 20 µM | 0.962 | > 5.12 µM | 0.936 | > 5 µM | 0.959 | > 10 µM | 0.845 | 1.26 µM | 0.514 | 1.09 µM | 0.967 | > 2 µM | 0.982 | > 5.12 µM
D-502MG (glioma, adherent) | 0.926 | > 10 µM | 0.873 | > 8 µM | 0.867 | > 4 µM | 0.928 | > 5.12 µM | 0.95 | > 20 µM | 0.965 | > 5.12 µM | 0.977 | > 5 µM | 0.847 | > 10 µM | 0.917 | > 2 µM | 0.729 | 6.59 µM | 0.973 | > 2 µM | 0.966 | > 5.12 µM
